# Test results taken from the supplement of paper PMC12217912.
# The other results are listed elsewhere or left out. The full chains were built here from the parent and the listed change. Values near 0.05 are background.
# B1: TEV protease; numbered along this chain (parent)
# chain: MGESLFKGPRDYNPISSSICHLTNESDGHTTSLYGIGFGPFIITNKHLFRRNNGTLVVQSLHGVFKVKDTTTLQQHLVDGRDMIIIRMPKDFPPFPQKLKFREPQREERICLVTTNFQTKSMSSMVSDTSCTFPSGDGIFWKHWIQTKDGQCGSPLVSTRDGFIVGIHSASNFTNTNNYFTSVPKNFMELLTNQEAQQWVSGWRLNADSVLWGGHKVFMVKPEEPFQPVKEATQL
# Variants of: B1
# Experiment: raw area under fraction-flipped curve 0-4 h after induction (AUC4h, not background-subtracted), DNA-recorder readout of cleavage of the substrate (dimensionless); higher = more cleavage of the substrate by the protease variant
# Details: temperature: 34 °C; time window: 0-4 h after rhamnose induction
# Procedure: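 In vivo DNA recorder in E. coli TOP10(DE3) ΔrhaA at 34 °C. Each TEVp single-site mutant (parent TEVp 0) is paired with a single-site variant of the 7-mer TEVs (canonical ENLYFQ|S). The substrate sits between flexible linkers in a Bxb1-sfGFP-TEVs-SsrA fusion, so cleavage stabilises Bxb1 and speeds flipping of a recombination array, read by NGS. The value is the raw area under the fraction-flipped curve over 0-4 h after rhamnose induction (AUC4h), with ≥20 reads per time point. It is not background-subtracted; inactive controls average about 0.047.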
# 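Also: Bxb1 expression induced with 0.2% (w/v) L-rhamnose at OD600 near 0.5, cultures sampled hourly, flipped fraction per protease–substrate barcode pair counted by paired-end Illumina sequencing.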
Variant,area with substrate ENLYAQS,area with substrate ENLYDQS,area with substrate ENLYEQS,area with substrate ENLYGQS,area with substrate ENLYHQS,area with substrate ENLYKQS,area with substrate ENLYLQS,area with substrate ENLYNQS,area with substrate ENLYPQS,area with substrate ENLYQQS,area with substrate ENLYRQS,area with substrate ENLYCQS,area with substrate ENLYIQS,area with substrate ENLYSQS,area with substrate ENLYVQS,area with substrate ENLYYQS,area with substrate ENLYMQS,area with substrate ENLYTQS,area with substrate ENLYWQS
W203C,0.0435,0.0713,0.053,0.0519,0.0679,0.0504,0.052,0.0588,0.06,0.0472,0.0567,,,,,,,,
P155Y,0.0681,0.0488,0.0402,0.0428,0.0552,0.0597,,,0.0763,0.0637,,0.0541,0.0638,0.0596,0.0607,0.049,,,
N24L,0.0792,0.0626,0.0586,0.0672,0.068,0.0583,0.0543,0.0683,0.0536,0.067,,0.0918,0.0998,0.0744,0.0864,0.0413,0.0832,0.0655,
N45K,0.0731,,0.0579,,0.0579,0.0273,,0.0553,0.0444,0.0573,0.0591,,0.0549,0.0545,,0.0549,0.0594,,0.066
S16W,0.0764,0.0564,0.0683,0.0632,0.0632,0.108,,0.0672,0.071,0.081,0.0605,,0.0873,0.0744,,,0.0928,0.0872,
G28N,0.0908,0.0656,0.0676,0.0438,0.0681,0.0568,0.0654,0.0734,,,0.0316,0.067,,0.0777,0.112,,0.0795,0.0735,0.0772
S17V,0.0552,0.0669,0.0579,0.067,0.0681,0.0615,0.0738,0.0719,0.0665,0.064,0.053,0.0886,0.112,0.0804,0.117,0.066,0.0835,0.0708,0.0713
H215R,0.0701,0.0581,0.0636,0.0545,0.0417,,0.0607,0.0694,0.07,0.0642,,0.0701,0.0364,,0.0728,0.0506,0.0597,0.0597,0.0479
A196I,0.0773,0.0557,0.0695,,0.0603,0.0652,0.0782,0.0708,0.0756,0.0454,0.0563,0.0951,,0.0696,0.11,0.0647,0.0911,,0.0853
E3S,0.0809,,0.0576,,0.0712,0.053,,,,,0.07,,0.121,0.0805,,,,0.0815,0.0648
K120Q,0.0701,0.0378,0.0651,,0.0782,0.0664,0.0927,0.0572,,0.0519,0.0518,0.0869,,0.0919,,,,0.0862,0.0826
S17K,0.0746,0.0635,0.073,0.0694,0.07,0.0576,,0.0708,0.0446,0.0673,0.0677,0.0977,0.111,,0.13,0.0648,0.0727,,0.119
F173I,0.068,0.0568,0.0682,0.0679,0.0742,0.0582,0.085,0.0492,0.0685,,,,0.105,0.0413,0.12,0.0716,0.0521,0.0666,0.0933
F49C,0.0687,0.0663,0.0511,0.0657,0.055,0.0605,,0.0435,0.0456,,0.0457,,0.0641,,0.0716,,0.0434,0.0579,
S60Y,0.0794,0.0567,0.0673,,0.0655,,0.0838,0.0641,0.0939,0.0619,0.061,,0.132,,0.101,0.0247,0.098,,
D137C,0.0633,0.0582,0.0629,0.0742,0.0647,0.0578,,0.0699,,,,,0.0923,,0.108,0.0607,,,0.0729
T114Q,0.0749,0.0645,0.0661,0.0639,,0.0493,0.0399,0.0831,0.0709,,,0.123,0.0706,0.0565,0.0512,,,,0.081
G37E,0.052,0.0481,0.0484,,0.0377,0.066,,0.0421,0.0516,0.0576,0.05,,0.0525,0.0481,0.0809,0.0428,0.0583,0.0548,0.0454
K142M,0.068,0.0367,0.0717,0.06,,0.0233,0.0856,0.0673,0.0726,0.0476,,0.0688,0.104,0.0626,0.105,,,0.0924,0.0859
S60Q,,0.0541,0.0443,0.0635,0.0593,0.0586,0.0747,0.0644,,0.0618,,0.0727,,,,0.0542,,0.0982,0.0673
N175D,,0.0674,0.0441,0.0632,0.0617,0.0326,0.0649,0.0524,0.0581,,0.0845,0.0478,0.0588,0.0475,0.0834,0.0573,0.0588,0.0658,0.0543
S201I,,0.0455,0.0599,0.0649,0.0722,0.0431,0.0725,0.0558,0.0676,,0.0629,0.0927,0.114,0.0868,0.0981,0.0615,0.0772,0.0567,0.0834
N175M,,,,,0.0718,0.0807,,0.061,0.0523,0.061,0.0747,0.0747,0.101,0.0497,,,,,0.0678
G28A,,0.0583,0.0528,0.0579,0.0627,0.0514,0.0787,0.0683,0.0627,,0.0701,0.0557,,0.0868,0.153,0.055,0.0623,,0.0594
R81D,,0.057,,0.0605,0.0662,,,,0.0688,0.0442,0.0642,0.0554,0.0703,0.0598,,0.005,0.0573,,0.0658
